# Experimental data: the supplement of paper PMC11417369
# ± gives the standard deviation of the averaged measurements. Some of the results follow.
# Tested on: PfAP2-I AP2 domain 3 (GST-tagged)
# Assay: gcPBM binding intensity (ln(normalized median fluorescence intensity)); higher = stronger DNA binding
# Procedure, shortened: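 An Agilent 4 × 180k array carrying primer-extended double-stranded 36-bp intergenic genomic probes and negative controls received GST-tagged P. falciparum DNA-binding domains expressed in E. coli, about 25 μg on average, for 1 h. The binding buffer contained 1× PBS, 1% milk, 0.2 mg/ml BSA, 0.5% salmon testes DNA and 0.03% Triton X-100. Binding intensity is the top Masliner-normalised natural-log median intensity across replicate spots of either probe orientation, read after Alexa488 anti-GST antibody staining and a 488 nm scan.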
row,Sequence,gcPBM binding intensity (ln)
1,TAATATACATATATATGTACATATATATATATATAT [XGTACX_site2684],9.09 ± 0.47
2,AACAATTATTTGTCGACACACGTATATGTTATTTAG [CACACA_site5046],8.32 ± 0.64
3,ACCGTGGGAGGACACACACACACACCCACATATATA [CACACA_site4339],8.04 ± 0.54
4,ATTTTTGTTATTACATGTACCCATAATTATTATTAA [XGTACX_site3558],8.58 ± 0.75
5,TATTTATATTCCTTTACACACTCCATCTTATATCCA [CACACA_site3604],7.99 ± 0.76
6,ACAAAAAAATGAAAAGAAAAAGATATACCCCAATAT [CACACA_negctrl_site509],8.43 ± 0.47
7,ATATCCATAATAAAAACATGCAACAGAAAAAAAAAA [TGCATGCA_site497],8.11 ± 0.91
8,AAGAGAAATATATATTGTACAATAATTTTATTTGGT [XGTACX_site7642],7.82 ± 0.35
9,TATATATTAATATTTACACACATGCGCACCCATAAA [CACACA_site2410],9.86 ± 0.57
10,TATATAATTAAAATAACACACATATATAAAAATATA [CACACA_site2990],7.53 ± 0.46
11,ATATTATAGTATATAACACACATTTTTCATAACACT [CACACA_site6331],7.86 ± 0.54
12,TGGCAAAATAGGCACACACACATATACATATATATT [CACACA_site1059],8.02 ± 0.42
13,GTATATATATTTCTTTAATAATTAAATTATAAATAT [CACACA_negctrl_site640],7.72 ± 0.43
14,AATATATAAACACGTACACACACATATATGTATATA [CACACA_site9168],8.28 ± 0.3
15,AATTTAAATATTTGTTGTACGTATTTATATATTCTT [XGTACX_site3623],7.89 ± 0.69
16,TATTATATCTTATATGTATATTCCCACAAATTATAT [GTGCAC_negctrl_site362],7.63 ± 0.58
17,ATAATATATAAACACACACACATATATAAATACATT [CACACA_site4466],7.84 ± 0.35
18,CATGCCGTTAAATTATGTACTTATTATTTTAATATG [XGTACX_site4209],7.75 ± 0.19
19,TAAATTAAATATTATAAACACACATATATATTATTT [CACACA_site8189],7.49 ± 0.47
20,TTAAAAAATTATTGTAGTACATAGGAAATGAAAAAA [XGTACX_site155],8.43 ± 0.18
21,TATATACATAAAATTTGTACATATATATATATATAT [XGTACX_site3214],9.32 ± 0.27
22,AAAAAAAAAAAATGAGCACACATAAATAAAAACAAA [CACACA_site8447],8.03 ± 0.19
23,ATATAAATAAATACAACACACATGTCATATCTAAAT [CACACA_site7533],7.79 ± 0.42
24,ATATTATTCTTATATTCACACAGTTTATATTTCCGT [CACACA_site5653],7.96 ± 0.47
25,AAATTACATACACGCGCACACACAAAAAAAAAAAAA [CACACA_site1335],8.32 ± 0.43
